{"source": "the RNAGym collection of RNA variant scans (doi:10.7554/elife.90254)", "parents": {"B1": {"name": "LINE1-mini (parent)", "chain": "GGCAGAGCUCAACACAGCGUGGCAAAGUGGCUGUGGCUAGACUGCC"}}, "note": "The source gives no read counts; variants with many changes may rest on few reads.", "data": [{"variants_of": "B1", "assay": "self-cleavage, relative activity (ratio to wild type); higher = more cleavage; in vitro, sequencing; the parent is a self-cleaving ribozyme", "values": [{"variant": "G5U G17A G36U C45G", "self-cleavage": 0.02}, {"variant": "G5U G7U A16G G40U C46A", "self-cleavage": 0.02}, {"variant": "A6C A14U C15A G27C G30C", "self-cleavage": 0.09}, {"variant": "G5U G22C C23A", "self-cleavage": 1.39}, {"variant": "G5U G17A C18G", "self-cleavage": 0.02}, {"variant": "G5U G22A G35A C46A", "self-cleavage": 0.05}, {"variant": "G5U G19C C42U", "self-cleavage": 0.07}, {"variant": "G5U G30A C31A", "self-cleavage": 0.04}, {"variant": "G5U G21U G40U", "self-cleavage": 0.26}, {"variant": "A6C A26C G30C G33C C46U", "self-cleavage": 0.05}, {"variant": "G5U G17C A24C G30C C37U U43A", "self-cleavage": 0.07}, {"variant": "G5U G17U C37U", "self-cleavage": 0.09}, {"variant": "G5U G7C C18U U32G A39G", "self-cleavage": 0}, {"variant": "G5U U38G C42A C46U", "self-cleavage": 0}, {"variant": "G5U U9G C23A A25U", "self-cleavage": 0.03}, {"variant": "A6C A12U C13U C23A G35U", "self-cleavage": 0.13}, {"variant": "G5U G19U G27A A39C", "self-cleavage": 0.02}, {"variant": "G5U G7U G44C", "self-cleavage": 0.16}, {"variant": "G5U G21U G27A A41C U43C", "self-cleavage": 0.02}, {"variant": "G5U U28C G30C", "self-cleavage": 0}, {"variant": "A6C A12U U28A", "self-cleavage": 0.08}, {"variant": "G5U G19C C37G U38A", "self-cleavage": 0.02}, {"variant": "G5U G21U G33C G36U", "self-cleavage": 0.06}, {"variant": "G5U G27A G30A C46A", "self-cleavage": 0.09}, {"variant": "A6C A26U G27A U38A", "self-cleavage": 0.04}, {"variant": "G5U G35C G40C", "self-cleavage": 0.01}, {"variant": "G5U G19U C42A", "self-cleavage": 0.37}, {"variant": "G5U G17U C37U C46A", "self-cleavage": 0.01}, {"variant": "G5U G21U A41U", "self-cleavage": 0.04}, {"variant": "A6C A14C G17U C37U", "self-cleavage": 0.05}, {"variant": "G5U G22U G40U", "self-cleavage": 0.04}, {"variant": "G5U G27U G40U", "self-cleavage": 0.04}, {"variant": "G5U U20A G33C C46U", "self-cleavage": 0.04}, {"variant": "A6C A12U G27C G30U G36C A39G", "self-cleavage": 0.04}, {"variant": "G5U G30U G40C", "self-cleavage": 0.03}, {"variant": "A6C A12U C15A", "self-cleavage": 0.02}, {"variant": "A6C C10A G17A G30A", "self-cleavage": 0.04}, {"variant": "A6C C10A C46U", "self-cleavage": 0.09}, {"variant": "G5U U9A G21C C46A", "self-cleavage": 0.09}, {"variant": "G5U G19U A24G C37A", "self-cleavage": 0.11}, {"variant": "G5U U9G G27C", "self-cleavage": 0.05}, {"variant": "A6C A16G G22U G29U G36U", "self-cleavage": 0.05}, {"variant": "G5U G22C C45A", "self-cleavage": 0.03}, {"variant": "G5U U9G C18U U28A", "self-cleavage": 0.06}, {"variant": "G5U G29U G36C", "self-cleavage": 0.1}, {"variant": "G5U G19U G36C", "self-cleavage": 0.01}, {"variant": "G5U U9C C10A G35U", "self-cleavage": 0.05}, {"variant": "A6C C8G G19A", "self-cleavage": 0.05}, {"variant": "G5U G17U U20A U32A", "self-cleavage": 0.05}, {"variant": "G5U U20C A25G C46U", "self-cleavage": 0.06}, {"variant": "A6C A12C U28A C31A G40C", "self-cleavage": 0.02}, {"variant": "A6C A11G G44C C45A", "self-cleavage": 0.01}, {"variant": "A6C A25U A41G", "self-cleavage": 0.81}, {"variant": "A6C A12C C23G", "self-cleavage": 0.14}, {"variant": "G5U G29U U32A G35U A39U", "self-cleavage": 0.03}, {"variant": "G5U G29A G33U", "self-cleavage": 0.13}, {"variant": "G5U G29A G33A", "self-cleavage": 0.03}, {"variant": "A6C A11C G21A", "self-cleavage": 0.03}, {"variant": "A6C A11G U20G G29C", "self-cleavage": 0.03}, {"variant": "A6C A25U G29U C31U G33C", "self-cleavage": 0.02}, {"variant": "G5U U9C G21U C37U A39G", "self-cleavage": 0.02}, {"variant": "A6C C8A A39C", "self-cleavage": 0.15}, {"variant": "G5U G7C C31G", "self-cleavage": 0.01}, {"variant": "G5U G29A U34A", "self-cleavage": 0.09}, {"variant": "G5U G19C G35A", "self-cleavage": 0.04}, {"variant": "G5U G35C C46U", "self-cleavage": 0.14}, {"variant": "A6C C10A A11U U20C G30U G35A", "self-cleavage": 0.04}, {"variant": "G5U G19A U20G A25U", "self-cleavage": 0.02}, {"variant": "G5U G40C C42U", "self-cleavage": 0.03}, {"variant": "G5U G33U G40A", "self-cleavage": 0.01}, {"variant": "G5U G29A U34A G40U C42G", "self-cleavage": 0.06}, {"variant": "G5U G27C U32G U34G U43A G44A C46A", "self-cleavage": 0}, {"variant": "G5U G7C G36C", "self-cleavage": 0.1}, {"variant": "G5U U28C G33C", "self-cleavage": 0.01}, {"variant": "A6C A16U G36C", "self-cleavage": 0.03}, {"variant": "G5U G19C G27U G40C A41U", "self-cleavage": 0.01}, {"variant": "G5U G22C U32A", "self-cleavage": 0}, {"variant": "G5U U20C A24U U28C", "self-cleavage": 0.13}, {"variant": "G5U U20G G21U U28A", "self-cleavage": 0.01}, {"variant": "G5U G21U C31A", "self-cleavage": 0.01}, {"variant": "G5U G19U G29U U38C", "self-cleavage": 0.02}, {"variant": "G5U U38C G44A", "self-cleavage": 0.03}, {"variant": "G5U U28C C31G", "self-cleavage": 0.02}, {"variant": "A6C C8A G19U G30U C37A", "self-cleavage": 0.01}, {"variant": "G5U U9C A39C", "self-cleavage": 0.03}, {"variant": "G5U G19C G33A", "self-cleavage": 0.01}, {"variant": "G5U G22C U32A U38G", "self-cleavage": 0}, {"variant": "A6C C10A G17A", "self-cleavage": 0.03}, {"variant": "A6C A14C A24U", "self-cleavage": 0.14}, {"variant": "G5U U20G G35U", "self-cleavage": 0.07}, {"variant": "G5U G27U G30U", "self-cleavage": 0.19}, {"variant": "A6C A11C A12C G21C G30U", "self-cleavage": 0.03}, {"variant": "A6C C10A A14U A24C C46A", "self-cleavage": 0.04}, {"variant": "A6C A12U C37A A41C C42A", "self-cleavage": 0.01}, {"variant": "G5U U34C C46U", "self-cleavage": 0.03}, {"variant": "G5U U32C C42A", "self-cleavage": 0.03}, {"variant": "G5U U28C G44U", "self-cleavage": 0.04}, {"variant": "G5U G7A G19A G40A", "self-cleavage": 0.28}, {"variant": "G5U G17U G30U", "self-cleavage": 0.05}, {"variant": "G5U U28A U32A C45A", "self-cleavage": 0.03}, {"variant": "A6C A11U G19A", "self-cleavage": 0.05}, {"variant": "G5U G7C G22U A24C G30C C46A", "self-cleavage": 0.04}, {"variant": "G5U U9G C10U G22C U28G", "self-cleavage": 0.04}, {"variant": "A6C C8U C13G C15U U32A", "self-cleavage": 0.07}, {"variant": "G5U G17A C31U", "self-cleavage": 0.05}, {"variant": "G5U G17A C31A", "self-cleavage": 0.03}, {"variant": "G5U G21U U34G", "self-cleavage": 0.04}, {"variant": "G5U U9C C31U U34C C46U", "self-cleavage": 0.08}, {"variant": "G5U U28A G35A C45G", "self-cleavage": 0.09}, {"variant": "G5U G29U C45A", "self-cleavage": 0.39}, {"variant": "A6C A24C C31G G33C A41U C45U", "self-cleavage": 0.01}, {"variant": "G5U U9C G21C G36U", "self-cleavage": 0.02}, {"variant": "A6C A25G U28G", "self-cleavage": 0.06}, {"variant": "G5U G7A G22C C45U", "self-cleavage": 0.2}, {"variant": "A6C A14C G29U U32C U38A", "self-cleavage": 0.09}, {"variant": "G5U U9G A39U", "self-cleavage": 0.16}, {"variant": "G5U G19U A25U G27U C31A U32G C42U G44A", "self-cleavage": 0.01}, {"variant": "A6C A16U C37U A41U C42A", "self-cleavage": 0.02}, {"variant": "G5U G17A U28G C37A C42U", "self-cleavage": 0.09}, {"variant": "G5U G21U G29C A39G", "self-cleavage": 0.02}, {"variant": "G5U U32G C42G", "self-cleavage": 0}, {"variant": "G5U G19U C31A C45G", "self-cleavage": 0.04}, {"variant": "A6C C10A A11C", "self-cleavage": 0.05}, {"variant": "G5U G29U G35U C45A", "self-cleavage": 0.06}, {"variant": "G5U U20A G36C", "self-cleavage": 0.73}, {"variant": "G5U G36A A41G", "self-cleavage": 0.14}, {"variant": "A6C A11G C18U G19U", "self-cleavage": 0.02}, {"variant": "G5U G19A U32C A39G", "self-cleavage": 0.04}, {"variant": "G5U G33U U38G", "self-cleavage": 0.01}, {"variant": "G5U G40A C45G", "self-cleavage": 0.03}, {"variant": "G5U G40A C45U", "self-cleavage": 0.02}, {"variant": "A6C A14G A25C G27U G30U G40A", "self-cleavage": 0.04}, {"variant": "A6C C8A U20C G27A U38A G40U U43G", "self-cleavage": 0.02}, {"variant": "G5U G21U U28G G30A C31A", "self-cleavage": 0.02}, {"variant": "A6C C8G G17A C18G C45A", "self-cleavage": 0.02}, {"variant": "G5U U9G C10G U28C U38C", "self-cleavage": 0}, {"variant": "A6C A11G C18G C23G G36A", "self-cleavage": 0}, {"variant": "G5U G22C G27A G36A", "self-cleavage": 0.04}, {"variant": "A6C A11U U34G", "self-cleavage": 0.04}, {"variant": "A6C A14C A24U G44C", "self-cleavage": 0.02}, {"variant": "A6C C10A C18A", "self-cleavage": 0.03}, {"variant": "G5U G36A G44C", "self-cleavage": 0.04}, {"variant": "G5U G17A A24C A25C G36C", "self-cleavage": 0.02}, {"variant": "A6C A14C A26G", "self-cleavage": 0.16}, {"variant": "G5U G17U U20A", "self-cleavage": 0.01}, {"variant": "G5U U9G A16C", "self-cleavage": 0.03}, {"variant": "A6C A26C U38A G40A", "self-cleavage": 0.01}, {"variant": "A6C A14C G29U C42G C45A", "self-cleavage": 0}, {"variant": "G5U G22U G35U", "self-cleavage": 0.38}, {"variant": "A6C C10A C18A G22U", "self-cleavage": 0.02}, {"variant": "A6C C10A C18G G36U C46U", "self-cleavage": 0.03}, {"variant": "G5U U9A C42U", "self-cleavage": 0.18}, {"variant": "G5U U20A U43C", "self-cleavage": 0.02}, {"variant": "A6C A39U C42A", "self-cleavage": 0.06}, {"variant": "G5U G30A C45U", "self-cleavage": 0.05}, {"variant": "G5U G21C G35A", "self-cleavage": 0.15}, {"variant": "G5U G27U C31U", "self-cleavage": 0.01}, {"variant": "G5U G7A C23U C46U", "self-cleavage": 0.31}, {"variant": "G5U G7A C13U C37U", "self-cleavage": 0.38}, {"variant": "A6C C8A C31G U34G", "self-cleavage": 0.17}, {"variant": "A6C C10A A12U U34A", "self-cleavage": 0.02}, {"variant": "G5U G19C G33C U43C", "self-cleavage": 0.02}, {"variant": "G5U U34A G40C", "self-cleavage": 0.04}, {"variant": "G5U U20G G22U A24G G36U", "self-cleavage": 0.01}, {"variant": "G5U G19C U34G U43C", "self-cleavage": 0.01}, {"variant": "A6C C10A G17A G40A", "self-cleavage": 0.02}, {"variant": "A6C A16C C37A", "self-cleavage": 0.01}]}]}
